Source: article PMC4336329 (PLoS ONE, 2015)
About 14,000 (4.5%) of roughly 310,000 compounds showed an effect of 50% or more. The effect is printed as a negative number. Some of the results follow.

Target: human ether-à-go-go-related gene (hERG) potassium channel (human, UniProt Q12809)
Test: primary screen, population patch clamp on CHO cells stably expressing hERG
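Note: peak tail current of the secondary pulse compared with the same well before compound.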

human ether-à-go-go-related gene (hERG) potassium channel, sequence (Q12809 whole entry, looked up): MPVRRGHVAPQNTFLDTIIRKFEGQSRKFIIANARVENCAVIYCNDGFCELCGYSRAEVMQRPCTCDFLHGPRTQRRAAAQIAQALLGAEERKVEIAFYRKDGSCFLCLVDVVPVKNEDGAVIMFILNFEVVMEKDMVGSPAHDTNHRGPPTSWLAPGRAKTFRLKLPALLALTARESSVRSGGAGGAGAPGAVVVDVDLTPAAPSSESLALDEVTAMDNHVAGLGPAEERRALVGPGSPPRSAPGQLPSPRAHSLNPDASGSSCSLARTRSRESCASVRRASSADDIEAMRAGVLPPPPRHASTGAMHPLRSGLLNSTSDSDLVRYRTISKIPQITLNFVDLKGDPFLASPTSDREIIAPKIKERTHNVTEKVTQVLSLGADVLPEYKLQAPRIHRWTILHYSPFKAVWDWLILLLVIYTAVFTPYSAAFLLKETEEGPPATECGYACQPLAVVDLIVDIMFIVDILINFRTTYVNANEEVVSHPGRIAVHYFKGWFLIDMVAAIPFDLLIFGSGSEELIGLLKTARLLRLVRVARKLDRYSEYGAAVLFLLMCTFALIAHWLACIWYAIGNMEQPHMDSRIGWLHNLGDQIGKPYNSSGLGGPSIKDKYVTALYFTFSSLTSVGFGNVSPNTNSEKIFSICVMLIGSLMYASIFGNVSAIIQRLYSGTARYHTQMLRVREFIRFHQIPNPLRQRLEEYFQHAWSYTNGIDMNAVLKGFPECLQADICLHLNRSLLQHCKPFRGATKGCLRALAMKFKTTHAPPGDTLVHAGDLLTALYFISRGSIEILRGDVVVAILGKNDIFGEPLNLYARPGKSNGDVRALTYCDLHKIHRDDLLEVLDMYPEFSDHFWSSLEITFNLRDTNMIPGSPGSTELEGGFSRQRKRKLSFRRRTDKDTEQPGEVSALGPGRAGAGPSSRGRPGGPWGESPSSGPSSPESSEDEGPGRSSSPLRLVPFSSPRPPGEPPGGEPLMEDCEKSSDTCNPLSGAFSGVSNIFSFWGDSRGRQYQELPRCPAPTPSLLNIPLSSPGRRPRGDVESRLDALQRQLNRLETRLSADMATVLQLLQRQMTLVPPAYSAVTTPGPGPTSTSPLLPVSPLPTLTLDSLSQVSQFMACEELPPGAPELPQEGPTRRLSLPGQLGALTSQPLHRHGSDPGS

SMILES	hERG current change (%, negative = inhibition) at 10uM [%]
Cn1c(N)c(C(=O)c2ccc(C#N)cc2)c(=O)n(C)c1=O	19.6
O=C(Cc1n[nH]c(=O)c2ccccc12)OCC(=O)c1ccc2c(c1)OCCO2	8.98
CCCCCC(=O)Nc1ccc(C(=O)COC(=O)Cn2cnc3c2c(=O)n(C)c(=O)n3C)cc1	-26.3
Nc1n[nH]c(N)c1N=Nc1ccc(F)cc1	26.7
COc1ccc(CN(C)S(=O)(=O)c2nnc(NC(=O)c3ccccc3)s2)cc1OC	1.89
CC(c1nc2ccccc2o1)N1C(=O)c2ccccc2C1=O (stereo not shown)	2.58
O=C(NC(=S)Nc1ccccc1N1CCOCC1)c1ccc(-c2cc(Cl)ccc2Cl)o1	-0.123
CN(C)S(=O)(=O)c1cccc(C(=O)Nc2ccc3c(c2)CCC3)c1	-21.9
CCOC(=O)COc1ccc(/C=C2/SC(=Nc3ccccc3)N(Cc3cccnc3)C2=O)cc1OC	13.3
O=C(Cc1ccsc1)Nc1cc(F)ccc1F	16.3
COc1ccc(CNC(=O)C(=O)NCC2OCCN2S(=O)(=O)c2ccc(OC)cc2)cc1 (stereo not shown)	2.86
O=C(C1=C(O)C(=O)N(CCN2CCOCC2)C1c1cccs1)c1cc2ccccc2o1 (stereo not shown)	4.99
O=C(Cn1ccc2cc(S(=O)(=O)N3CCCC3)ccc21)NCCc1ccccc1	1.95
CC(C)(C)CN1CCN(CC#Cc2ccccc2)CC1CCO (stereo not shown)	0.803
COc1ccc(/C=N/NC(=O)c2ccc[nH]2)cc1	9.79
COc1cc2[nH]c(=S)nc(NCCc3ccc(S(N)(=O)=O)cc3)c2cc1OC	25.3
Cc1ccccc1NC(=O)CSc1nc(COc2ccccc2)nc2ccccc12	11
Cc1cc(C)c(C(=O)/C=C/c2ccco2)c(=O)[nH]1	-7.77
CC(C)(C)c1ccc(C(=O)NCC(=O)OCC(=O)Nc2nc(-c3ccc(F)cc3)cs2)cc1	17.5
COc1ccc(/C=C/CN2CCN(CCc3ccccc3)C(CCO)C2)cc1 (stereo not shown)	-71.9
CCCCN(CC)CCNC(=O)C1c2cc(OC)c(OC)cc2C(=O)N2CCc3ccccc3C12 (stereo not shown)	-25.9
Cc1ccccc1S(=O)Cc1ccc(C(=O)NCCCN2CCCCC2)o1 (stereo not shown)	12.5

SMILES	hERG current change (%, negative = inhibition) at 10uM [%]
O=C(CSc1nnc2c(n1)[nH]c1ccc(F)cc12)Nc1ccccc1F	19.5
CC(=O)c1nc(N2C(=O)CC(Cc3cc(C)cc(C)c3)C2=O)sc1C (stereo not shown)	-8.57
Cc1cc([N+](=O)[O-])ccc1NC(=O)c1csc(C)c1C	13.3
Cc1cccc2c1cnn2C(=O)CCC(=O)NC1CCCCC1	7.26
C=CCn1c(-c2c(C)nc3cc(C)ccn23)n[nH]c1=S	-1.51
N#CC1=C(N)Oc2cc(O)c(Cl)cc2C1c1cccnc1 (stereo not shown)	-12.3
CCc1ccc(CCC(=O)Nc2sc(C)c(C)c2C(=O)OC)o1	-8.54
CC(=O)Nc1nnc(SCC(=O)N2C(C)CCCC2C)s1 (stereo not shown)	12.9
O=C(NCc1ccc(Cl)cc1)C1CCN(S(=O)(=O)c2cccc3nonc23)CC1	12.8
O=C(c1ccc(N2CCOCC2)cc1)N1CCCC(Nc2ccccc2)C1 (stereo not shown)	-0.285
Cc1ncc(C[n+]2csc(CCOC(=O)CC3C4CC5CC(C4)CC3C5)c2C)c(N)n1.Cl.[Cl-] (stereo not shown)	-19.8
COc1ccccc1NC(=O)COC(=O)/C=C/c1ccc2c(c1)OCO2	12.9
CC(C)C[C@@H]1NC(=O)[C@H](CO)NC(=O)c2cc([N+](=O)[O-])cc(I)c2OCC[C@@H](C(N)=O)NC1=O	2.3
COc1ccc(S(=O)(=O)NCc2ccc(C(=O)N3CCC4(CC3)OCCO4)cc2)cc1	-12
CN(C(=O)COC(=O)c1ccc(Cl)c(S(=O)(=O)N2CCCCC2)c1)C1(C#N)CCCCC1	-57.4
O=C(Oc1ccc(N(Cc2cccs2)C2=NS(=O)(=O)c3ccccc32)cc1)c1ccccc1Cl	-16.2
OCCCn1c(C(CO)Nc2nc(-c3ccc(Cl)cc3)cs2)nc2ccccc21 (stereo not shown)	-30
O=C(O/N=C\c1ccc(N2CCOCC2)c([N+](=O)[O-])c1)c1ccccc1Cl	-46.6
FC(F)(F)c1ccc(N2CCN(c3ncnc4c3nnn4Cc3ccccc3Cl)CC2)cc1	13.3
Cc1nnc(NCc2ccncc2)c2ccccc12	-8.54
O=C(COc1ccc2ccccc2c1)N1CCN(CC2CC3C=CC2C3)CC1.O=C(O)C(=O)O (stereo not shown)	-5.01
Cc1cc2c(cc1S(=O)(=O)Nc1ccc(F)cc1)n(C)c(=O)c(=O)n2C	-6.7

SMILES	hERG current change (%, negative = inhibition) at 10uM [%]
Cc1ccc2c(c1)N(CC(=O)N1CCc3ccccc3C1)C(=O)CO2	-0.485
Clc1ccc(-c2nc3ccccc3n2OCc2ccccc2)cc1	-6.06
CS(=O)(=O)Nc1ccccc1C(=O)N1CCOCC1	16.4
COc1ccc(CNC(=O)c2c[nH]c3ccccc3c2=O)cc1	10.2
CC(C)CCNC(=O)c1cc2c(s1)-c1ccccc1S(=O)(=O)C2	-3.55
C=CCn1c(SCC(=O)NC2CCCCC2)nnc1-c1ccccn1	-4.21
CCOC(=O)N1[C@@H]2C=C(C)[C@@H]2[C@@H]2[C@@H](C)C(=O)N21	-0.711
O=C(NNc1cc(Cl)ccc1Cl)c1c(F)cccc1Cl	-4.5
Cc1ccc(S(=O)(=O)/N=C(/Nc2ccc([N+](=O)[O-])cc2)c2ccccc2)cc1	12.2
Cc1ccccc1C(=O)NN1CC(C(=O)OCc2ccc(Cl)c(Cl)c2)CC1=O (stereo not shown)	-31.6
O=C(NCC1CCCO1)C1CCCN(S(=O)(=O)c2cccc(C(F)(F)F)c2)C1 (stereo not shown)	4.31
CC1Sc2ccc(S(=O)(=O)N3CCC(C(=O)NCc4ccco4)CC3)cc2NC1=O (stereo not shown)	-16.2
COCc1cc(=O)n2[nH]cc(-c3ccccc3)c2n1	9.45
O=C(NCC1CC1)C1(S(=O)(=O)c2ccccc2)CC=CC1	11
CCCCCC(O)CCc1n[nH]c(=S)n1-c1ccccc1 (stereo not shown)	16.6
CC(C)CN(C(=O)COC(=O)CSc1ccccc1)c1c(N)n(Cc2ccccc2)c(=O)[nH]c1=O	11.3
O=C1N=C(N2CCOCC2)S/C1=C/c1cc2c(cc1[N+](=O)[O-])OCO2	8.71
Cc1sc2ncnc(N3CCC(C(=O)NNC(=O)COc4ccccc4F)CC3)c2c1C	-57
Cc1nc(C(=O)NCCC(C)C)sc1C1(C)CC(c2ccccc2)=NO1 (stereo not shown)	-9.61
COc1ccc(Nc2nc(N3CCOCC3)nc(N3CCOCC3)n2)c(OC)c1	8.58
Cc1ccc(N2C(=O)CC(SCC(=O)Nc3ccc(S(N)(=O)=O)cc3)C2=O)cc1 (stereo not shown)	17.5
CCOC(=O)C1CCCN(Cc2cccs2)C1 (stereo not shown)	-4.36

SMILES	hERG current change (%, negative = inhibition) at 10uM [%]
CCOC(=O)c1cc(-c2ccc(F)cc2)n(CC(=O)N2CCCC2)c1C	-2.89
CC(C)(C)c1ccc(OCC(=O)NNC(=O)Nc2ccccc2)cc1	-8.9
CC(C)(C)C(=O)Nc1c(Cl)cccc1OC(F)(F)F	10.7
NC(=O)c1ccc(N2CCOCC2)nc1	23.6
COc1ccc(C(=O)Nc2ccnn2C2CCN(C(=O)c3cc(C)on3)CC2)cc1	2.28
CC(C(=O)Nc1ccc2nccnc2c1)N1C(=O)C2C3C=CC(C3)C2C1=O (stereo not shown)	4.05
Nc1nonc1-n1nnc(C(=O)N/N=C/c2ccc(Br)cc2)c1-c1ccc2c(c1)OCO2	25.4
CCOC(=O)c1[nH]c(C)c(C(=O)Nc2ccc(C)cc2C)c1C	-1.41
Cc1ccc(C(=O)N2CCCCC2)cc1NC1=C(Cl)C(=O)N(Cc2ccccc2)C1=O	-22
COc1cc2c(=O)n(Cc3ccccc3)c(=O)n(CC(=O)NCCc3ccccc3)c2cc1OC	0.36
COc1ccc(C2Nc3ccccc3C(=O)N2Cc2ccco2)cc1COc1ccc([N+](=O)[O-])cc1 (stereo not shown)	-7.23
COc1ccc(-n2nc(C(=O)NCC(=O)NCCCN3CCOCC3)c3ccccc3c2=O)cc1Cl	-12.6
CCC(C)C12CN3CCN(CC(C)(C3)C1O)C2 (stereo not shown)	9.31
c1ccc(-c2noc(CSc3nnc(Cc4cccs4)n3-c3ccccc3)n2)cc1	-17.8
O=C(COC(=O)Cc1cn2ccsc2n1)NCc1ccc2c(c1)OCO2	-15.2
Cc1ccc(C)c(NC(=O)CN(C)C(=O)CN2C(=O)C3CCCCC3C2=O)c1 (stereo not shown)	10
Cc1ccc(NC(=O)COC(=O)CCc2ccc(S(=O)(=O)N3CCOCC3)cc2)cc1C	-6.09
C(=N\Nc1ccccn1)/c1ccc(N2CCOCC2)cc1	3.55
O=c1cc(CN2CCN(c3cccc(Cl)c3)CC2)c2cc(O)c(-c3ccccc3)cc2o1	17.7
